# Test results as given in PubChem BioAssay AID463173 (ICCB-Longwood Screening Facility, Harvard Medical School, 2010).
# The campaign covered roughly 52,000 compounds. About 4,300 (8.3%) were called active. No stated cut-off is given here; in the data, active means survival mostly below about 52% (no sharp cut-off); inactive means mostly above about 56%. Some of the results follow.
# System: DeltatarO mutant
# Assay: S. aureus survival, RN4220 and DeltatarO strains – OD600, teichoic acid synthesis inhibitors, primary screen (AID 463173)
# Details: S. aureus RN4220 wild type/DeltatarO growth, OD600, 18 h, hits give low values, screened at 18.75 µg/mL (by protocol)
row,Structure (SMILES),survival
1,Cc1ccc(-c2nc3ccccc3n3c(-c4ccccc4)c4c(=O)n(C)c(=O)n(C)c4c23)cc1,inactive: 97%
2,COc1ccc(S(=O)(=O)N2CCN(c3ccccc3OC)CC2)cc1-c1noc(C)n1,inactive: 110%
3,Nc1ccc(CNc2ncn[nH]2)cc1,inactive: 92%
4,COc1ccc(Cn2nnnc2C(C(C)C)N2CCc3ccccc32)cc1 (stereo unspecified),inactive: 82%
5,COc1cc(OC)c(NC(=O)c2cc(CN3CCOCC3)on2)cc1Cl,inactive: 89%
6,CCn1ccc2cc(S(=O)(=O)N3CCCN(C(=O)NCC(C)C)CC3)ccc21,inactive: 86%
7,CCn1ccc2cc(S(=O)(=O)N3CCC(C(=O)NCc4cccc(C)c4)CC3)ccc21,inactive: 66%
8,CCCCNC(=O)c1cc(Sc2ccc(OCC)cc2)nc2ccccc12,inactive: 69%
9,COc1ccccc1N1CCN(c2csc3ccc(Cl)cc3c2=O)CC1,inactive: 90%
10,COc1ccc(Nc2cc(C(=O)NC3CCCC3)c3ccccc3n2)c(OC)c1,inactive: 75%
11,CCNC(=O)Cn1c(-c2cccs2)cc2ccccc21,inactive: 80%
12,Cc1ccc(CN(C(=O)Nc2cccc(Cl)c2)c2ccccn2)cc1,active: 40%
13,COc1ccc(NC(=O)c2nnn(Cc3nc(-c4cc(Br)ccc4OC)oc3C)c2C)cc1,inactive: 41%
14,CCOc1cccc(C2c3c(oc4ccc(F)cc4c3=O)C(=O)N2CCc2ccc(OC)cc2)c1 (stereo unspecified),inactive: 94%
15,Cc1oc(C)c2c(=O)cc(-c3ccc4c(c3)OCO4)cc(OC(=O)c3ccccc3Br)c12,inactive: 106%
16,Cc1cc(C)nc(NCC(O)COc2ccccc2C)n1 (stereo unspecified),inactive: 82%
17,COc1ccc(NC(=O)C2CCN(S(=O)(=O)c3ccc4c(c3)CCCC(=O)N4)CC2)cc1Cl,inactive: 78%
18,Cc1ccc(Cl)c2sc(NC(=O)CS(=O)(=O)c3ccc(Cl)cc3)nc12,inactive: 77%
19,CCOc1ccc(CNS(=O)(=O)c2c(C(=O)N3CCCCCC3)c(C)n(C)c2C)cc1OC,inactive: 69%
20,CCn1cc(C(=O)NCc2ccc(C)cc2)c(=O)c2cc(S(=O)(=O)N3CCC(C)CC3)ccc21,inactive: 118%
21,O=C(NCCSCc1ccc(Cl)cc1)C1CCN(S(=O)(=O)Cc2ccccc2)CC1,inactive: 70%
22,Cc1ccc(-c2c(C(=O)Nc3ccc(F)c(F)c3)oc(=O)c3ccccc23)cc1,inactive: 80%
23,CN(C)c1ccc(CNC(=O)c2cc3cc(S(=O)(=O)N4CCCCC4)ccc3n2C)cc1,active: 8%

row,Structure (SMILES),survival
1,O=C(CN1C(=O)C2CCCCN2c2ccc(C(=O)N3CCCC3)cc21)NCc1cccc(Cl)c1 (stereo unspecified),inactive: 68%
2,COc1ccc(CNC(=O)CCC(=O)N2CC3CCCN3c3ccccc32)cc1 (stereo unspecified),inactive: 71%
3,COc1ccccc1CNC(=O)c1ccc(CS(=O)(=O)c2ccccc2C)o1,inactive: 67%
4,O=C(NCc1ccccc1)c1ccc(NC(=O)c2nsc3ccccc23)cc1,inactive: 61%
5,O=C(Nc1cccc(-n2cnnn2)c1)c1ccccc1,inactive: 95%
6,COc1cc(CN(CC2CCCO2)C(=O)c2ccc(F)cc2)cc(OC)c1OC (stereo unspecified),inactive: 67%
7,CC(=O)N1CCCc2cc(S(=O)(=O)N3CCC(C(=O)NCc4ccc(N(C)C)cc4)CC3)ccc21,inactive: 69%
8,CCOc1cccc(CC(=O)Nc2ccc3nc(N4CCCCC4)cc(C)c3c2)c1OCC,inactive: 131%
9,Cc1ccc(NC(=O)Nc2nnc(N3CCCC3)s2)c(C)c1,inactive: 93%
10,Cc1ccc(CNC(=O)Cc2coc3cc(C)cc(C)c23)cc1,inactive: 102%
11,COc1ccc(C=Nc2ccc3[nH]ncc3c2)c(O)c1,inactive: 97%
12,CCCCN(C)C(=O)C1CCCN(c2ncnc3onc(-c4ccc(F)cc4)c23)C1 (stereo unspecified),inactive: 77%
13,Cc1cccc(N2CCN(C(=O)CSCc3ccc(F)cc3)CC2)c1C,inactive: 94%
14,CCN(CC)S(=O)(=O)c1ccc2c(c1)c(=O)c(C(=O)NCc1ccccc1)cn2C,inactive: 70%
15,Cc1cc(C)cc(-n2cnc3ccccc3c2=O)c1,inactive: 96%
16,Cc1ccc(C(C)C)c(OCC(=O)Nc2ccc(S(=O)(=O)Nc3onc(C)c3C)cc2)c1,inactive: 134%
17,Cc1ccc(C2c3c(oc4ccccc4c3=O)C(=O)N2c2ccc(C)cn2)cc1 (stereo unspecified),inactive: 69%
18,CCOc1ccc2nc(NC(=O)CS(=O)(=O)c3ccc(Cl)cc3)sc2c1,inactive: 60%
19,N#Cc1ccc(CN2C(=O)c3ccccc3Sc3ccc(C(=O)OCc4ccco4)cc32)cc1,inactive: 113%
20,COc1ccccc1CNC(=O)C(CC(C)C)NS(=O)(=O)c1ccc2c(c1)oc(=O)n2C (stereo unspecified),inactive: 82%
21,Cn1c(=NC(=O)c2ccc3c(c2)OCCO3)sc2cc(S(C)(=O)=O)ccc21,inactive: 89%
22,Cc1ccccc1-c1noc(C(C)NC(=O)c2ccco2)n1 (stereo unspecified),inactive: 79%
23,O=C(NC1C2CC3CC(C2)CC1C3)c1cc2ccccc2o1 (stereo unspecified),inactive: 76%
